Consider six substances from PMC6114900, “Molecular basis for CesT recognition of type III secretion effectors in enteropathogenic Escherichia coli” (PLoS Pathogens, 2018).

Chains of the proteins cited; added tags and fusions are not shown. Lines headed by an entry give the natural chain unless they say otherwise; changes in a name come on top. A line that says so, or that is headed by a name, gives the form on record, which may keep a tag or linker. Residues count along the entry.
UniProt B7UM99: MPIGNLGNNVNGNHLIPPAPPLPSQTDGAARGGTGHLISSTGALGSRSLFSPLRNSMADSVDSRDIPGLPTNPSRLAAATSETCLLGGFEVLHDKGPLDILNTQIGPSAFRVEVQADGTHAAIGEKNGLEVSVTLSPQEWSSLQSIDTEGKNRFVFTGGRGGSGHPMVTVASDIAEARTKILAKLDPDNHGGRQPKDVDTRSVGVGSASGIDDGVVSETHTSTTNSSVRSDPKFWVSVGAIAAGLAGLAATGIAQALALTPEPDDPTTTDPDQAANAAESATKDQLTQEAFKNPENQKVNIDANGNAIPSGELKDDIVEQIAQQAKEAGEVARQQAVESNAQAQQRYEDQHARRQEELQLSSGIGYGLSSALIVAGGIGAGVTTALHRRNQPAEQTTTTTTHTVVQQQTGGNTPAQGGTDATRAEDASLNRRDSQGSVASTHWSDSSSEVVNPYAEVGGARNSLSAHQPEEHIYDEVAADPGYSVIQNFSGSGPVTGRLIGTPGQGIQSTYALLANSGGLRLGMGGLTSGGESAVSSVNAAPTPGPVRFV
T18 fused to Tir^23-550 (enteropathogenic Escherichia coli (EPEC)): residues 23-550 of B7UM99
His6-Tir^23-80 (enteropathogenic Escherichia coli (EPEC)): residues 23-80 of B7UM99
His6-Tir^32-80 (enteropathogenic Escherichia coli (EPEC)): residues 32-80 of B7UM99
His6-Tir^32-73 (enteropathogenic Escherichia coli (EPEC)): residues 32-73 of B7UM99
His6-Tir^35-77 (enteropathogenic Escherichia coli (EPEC)): residues 35-77 of B7UM99
His6-Tir^37-80 (enteropathogenic Escherichia coli (EPEC)): residues 37-80 of B7UM99
His6-Tir^37-73 (enteropathogenic Escherichia coli (EPEC)): residues 37-73 of B7UM99
T18 fused to Tir^81-550 (enteropathogenic Escherichia coli (EPEC)): residues 81-550 of B7UM99
T18 fused to Tir^490-550 (enteropathogenic Escherichia coli (EPEC)): residues 490-550 of B7UM99
UniProt P21244: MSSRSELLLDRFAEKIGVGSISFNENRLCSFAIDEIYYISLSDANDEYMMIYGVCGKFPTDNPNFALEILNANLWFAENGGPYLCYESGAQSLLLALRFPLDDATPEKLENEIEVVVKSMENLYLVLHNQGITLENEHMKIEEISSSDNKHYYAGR

Assay [1] addresses T18 fused to Tir^23-550 (enteropathogenic Escherichia coli (EPEC)) (UniProt B7UM99). The experiment in a line: two-hybrid.
Assay [2] has as its target T18 fused to Tir^23-80 (enteropathogenic Escherichia coli (EPEC)) (UniProt B7UM99). The experiment in a line: two-hybrid.
Assay [3] deals with T18 fused to Tir^490-550 (enteropathogenic Escherichia coli (EPEC)) (UniProt B7UM99). Description: two-hybrid.
The target in assay [4] is T18 fused to Tir^81-550 (enteropathogenic Escherichia coli (EPEC)) (UniProt B7UM99). The experiment in a line: two-hybrid.
For assay [5], the target named is His6-Tir^23-550 (enteropathogenic Escherichia coli (EPEC)) (UniProt B7UM99). The experiment in a line: pull-down.
Assay [6] deals with His6-Tir^23-80 (enteropathogenic Escherichia coli (EPEC)) (UniProt B7UM99). The experiment in a line: pull-down.
Assay [7] addresses His6-Tir^32-73 (enteropathogenic Escherichia coli (EPEC)) (UniProt B7UM99). The experiment in a line: pull-down.
Assay [8] has as its target His6-Tir^32-80 (enteropathogenic Escherichia coli (EPEC)) (UniProt B7UM99). The experiment in a line: pull-down.
For assay [9], the target named is His6-Tir^35-77 (enteropathogenic Escherichia coli (EPEC)) (UniProt B7UM99). The experiment in a line: pull-down.
Assay [10] has as its target His6-Tir^37-73 (enteropathogenic Escherichia coli (EPEC)) (UniProt B7UM99). The experiment in a line: pull-down.
The target in assay [11] is His6-Tir^37-80 (enteropathogenic Escherichia coli (EPEC)) (UniProt B7UM99). Description: pull-down.
Assay [12] addresses His6-Tir^490-550 (enteropathogenic Escherichia coli (EPEC)) (UniProt B7UM99). Description: pull-down.
The target in assay [13] is His6-Tir^81-550 (enteropathogenic Escherichia coli (EPEC)) (UniProt B7UM99). Description: pull-down.
Assay [14] deals with Tir (BACTH fusions of the Tir-Tir interaction) (enteropathogenic Escherichia coli (EPEC)) (UniProt B7UM99). The experiment in a line: two-hybrid.

These are yes or no findings as the source states them, for the method shown. For part of these data: Binding seen in cells or lysates may run through a third protein. Some binding calls cover weakened binding; strength is not graded here.

In the case of “CesT fused to T25 (from UniProt P21244 1-156)”, the binding result in [1], in [2], in [3] and in [4] was “binds” throughout.
With CesT-FLAG (from UniProt P21244 1-156), the binding entry is recorded as “binds” in [5]; “binds” in assay [6]; “no binding” in assay [7]; “binds” in assay [8]; “binds” in assay [9]; “no binding” in [10]. Besides, the binding result in assay [11] is “no binding”; in assay [12], “binds”; in assay [13], “binds”.
With “CesT^138 (no tag, co-expressed and co-purified with His6-Tir peptides) (from UniProt P21244 2-138) (domain or fragment)”, the binding result in [6], in [7] and in [9] was “binds” in each case.
As for “CesT^138 fused to T25 (from UniProt P21244 2-138) (domain or fragment)”, the binding result in assay [1], in assay [2], in [3] and in [4] was “binds” each time.
As to “CesT^138-FLAG (from UniProt P21244 2-138) (domain or fragment)”, the binding entry in assay [6] was “binds”; in assay [7], “binds”; in assay [8] it was “binds”; in [9], “binds”; in [10], “no binding”; in [11], “no binding”.
Turning to “Tir (BACTH fusions of the Tir-Tir interaction) (from UniProt B7UM99 1-550)”, in assay [14], the binding result is “binds”.
